# Test results: US20220340685A1, “COMBINATION THERAPY WITH ENTPD2 AND CD73 ANTIBODIES” (Novartis AG, priority 2019, published 2022)
# T1: human ENTPD2 (Homo sapiens, UniProt Q9Y5L3)
# T1 construct: residues 29-462 of human or cyno ENTPD2; GP67 signal peptide (N); made in house; host or cells: High Five (Trichoplusia ni) insect cells, baculovirus
# T1 sequence (Q9Y5L3 29-462): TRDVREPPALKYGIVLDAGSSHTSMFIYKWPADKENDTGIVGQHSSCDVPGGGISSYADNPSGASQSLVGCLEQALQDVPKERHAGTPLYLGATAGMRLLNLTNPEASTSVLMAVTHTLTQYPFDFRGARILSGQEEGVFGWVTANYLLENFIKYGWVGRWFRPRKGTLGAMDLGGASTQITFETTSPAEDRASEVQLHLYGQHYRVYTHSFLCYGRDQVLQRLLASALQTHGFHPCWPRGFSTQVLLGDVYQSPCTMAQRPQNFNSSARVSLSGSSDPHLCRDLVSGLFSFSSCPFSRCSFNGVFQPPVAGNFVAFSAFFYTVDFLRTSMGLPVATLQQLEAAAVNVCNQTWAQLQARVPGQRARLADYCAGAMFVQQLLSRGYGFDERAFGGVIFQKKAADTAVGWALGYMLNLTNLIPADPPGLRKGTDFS
# T2: mouse ENTPD2 (Mus musculus, UniProt O55026)
# T2 construct: residues 29-462 of mouse or rat ENTPD2 (the extracellular domain); His6; mouse IgK signal peptide (N); made in house; host or cells: FreeStyle 293-F cells (transient)
# T2 sequence (O55026 29-462): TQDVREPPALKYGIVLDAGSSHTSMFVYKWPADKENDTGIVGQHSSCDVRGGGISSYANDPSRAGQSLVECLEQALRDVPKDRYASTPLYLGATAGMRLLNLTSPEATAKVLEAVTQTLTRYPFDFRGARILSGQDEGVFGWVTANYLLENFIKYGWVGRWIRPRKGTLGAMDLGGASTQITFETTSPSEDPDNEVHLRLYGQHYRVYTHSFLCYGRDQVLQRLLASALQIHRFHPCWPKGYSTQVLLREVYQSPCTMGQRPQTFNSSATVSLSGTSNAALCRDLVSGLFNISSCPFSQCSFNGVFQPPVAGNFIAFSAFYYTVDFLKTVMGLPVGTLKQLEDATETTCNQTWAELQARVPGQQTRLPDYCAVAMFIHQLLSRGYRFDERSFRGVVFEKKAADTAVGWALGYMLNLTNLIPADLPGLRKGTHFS
# T3: Human ENTPD1 (NP_001767) expressing NIH/3T3 cells (Homo sapiens, UniProt P49961)
# T3 construct: expressed in transfected cells; host or cells: NIH/3T3 (retroviral transduction, FACS-sorted)
# T3 sequence (P49961 1-510): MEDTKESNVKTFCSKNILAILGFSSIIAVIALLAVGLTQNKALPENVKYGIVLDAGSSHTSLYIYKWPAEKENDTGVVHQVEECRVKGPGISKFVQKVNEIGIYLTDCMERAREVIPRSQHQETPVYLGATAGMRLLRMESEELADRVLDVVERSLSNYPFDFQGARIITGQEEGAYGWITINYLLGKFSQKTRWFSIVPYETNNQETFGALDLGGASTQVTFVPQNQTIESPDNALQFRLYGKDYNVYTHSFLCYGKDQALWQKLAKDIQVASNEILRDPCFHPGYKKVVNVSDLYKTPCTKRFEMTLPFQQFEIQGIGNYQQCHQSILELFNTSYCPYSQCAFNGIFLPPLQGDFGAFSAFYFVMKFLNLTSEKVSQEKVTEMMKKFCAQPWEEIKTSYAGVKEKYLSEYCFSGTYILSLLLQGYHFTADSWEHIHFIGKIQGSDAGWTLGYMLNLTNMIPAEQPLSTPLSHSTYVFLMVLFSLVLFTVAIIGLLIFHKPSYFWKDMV
# B1: mAb4: humanized anti-human ENTPD2 antibody derived from mAb16; probably heavy chain SEQ ID NO: 48, light chain SEQ ID NO: 59 (antibody)
# heavy: QIQLQESGPGLVKPSQTLSLTCTVSGYSITSGYYWNWIRQHPGKGLEWIGYISYDADNNYNPSLKNRVTISRDTSKNQFSLKLSSVTAADTAVYYCAGGYYRYGLGSYRGSYYYVMDYWGQGTTVTVSSASTKGPSVFPLAPSSKSTSGGTAALGCLVKDYFPEPVTVSWNSGALTSGVHTFPAVLQSSGLYSLSSVVTVPSSSLGTQTYICNVNHKPSNTKVDKRV[left out - human IgG1 Fc]
# light: ETVLTQSPATLSVSPGERATISCKASQSVDYEGHSYMNWYQQKPGQAPRLLIYAASNLESGIPARFSGSGSGTDFTLTISSVEPEDAATYYCQQSNEDPPTFGGGTKLEIKRTVAAPSVFIFPPSDEQLKSGTASVVCLLNNFYPREAKVQWKVDNALQSGNSQESVTEQDSKDSTYSLSSTLTLSKADYEKHKVYACEVTHQGLSSPVTKSFNRGEC
# B2: mAb5: humanized anti-human ENTPD2 antibody derived from mAb16; probably heavy chain SEQ ID NO: 48, light chain SEQ ID NO: 66 (antibody)
# heavy: B1 heavy
# light: B1 light with E32D, H34N
# B3: ANTI-HUMAN ENTPD2 MAB4 (antibody)
# heavy: B1 heavy
# light: B1 light
# B4: ANTI-HUMAN ENTPD2 MAB5 (antibody)
# heavy: B1 heavy
# light: B1 light with E32D, H34N
# Assays:
# human ENTPD2 = molecular target: T1, human ENTPD2; experiment: Biacore SPR kinetic affinity to human ENTPD2 ECD; type: binding; conditions: 25° C.; for Human ENTPD2 ka: association rate; for Human ENTPD2 kd: dissociation rate
# Procedure: (§1) Biacore Screening: Affinity was measured by determining the kinetic rate constants using surface plasmon resonance (SPR) on a Biacore T200 or T100 with the T200 sensitivity upgrade instrument (Biacore, GE Healthcare). Antibodies were captured on CM5 sensor chips (Biacore, GE Healthcare) prepared with a mouse anti-human IgG Fc antibody (ThermoFisher catalogue # 05-4200) amine coupled to the surface. […] ENTPD2 analytes were allowed to associate for 180 s and dissociate for up to 1800 s depending on the off-rate of the antibody at a flow rate of 30 μL/min. The running buffer was PBS pH 7.2 (prepared from a Corning 10X stock, cat# 46-013-CM) +0.05% Tween 20. Regeneration was accomplished with 30 s injections of 3 or 4 M MgCl2 to remove all the captured antibody and remaining complex from the surface, after which fresh antibody was captured. The raw data were analyzed using Biacore T200 Evaluation Software version 1.0 and fit to a 1:1 binding model, with all parameters set to fit globally except for RI, which was set to fit locally.
# mouse ENTPD2 = molecular target: T2, mouse ENTPD2; experiment: Antibody specificity: binding to mouse ENTPD2; conditions: Biacore SPR
# Procedure: ELISA screening on directly coated antigen: Maxisorp™ 384-well plates (Thermo Nunc) were coated with 2 μg/ml of recombinant ENTPD2 diluted in PBS. After blocking with 2% BSA (bovine serum albumin) in PBS for 1 hr at room temperature, washing plates 3× with TBST (0.05% Tween 20 in TBS, Sigma Cat# T9039), primary antibodies in TBST and 2% BSA were added in a serial dilution and incubated for 1 hr at room temperature. Plates were washed again and bound antibodies were detected by incubation with anti-hFc gamma conjugated to horseradish peroxidase (HRP; Jackson ImmunoResearch, Cat#115-035-098, diluted 1:5000 in 1× TBST+2% BSA) for 1 hr at room temperature followed by washing with TBST and afterwards addition of SureBlue Peroxidase substrate (KPL, #52-00-03) substrate. After 15 min, absorbance at 650 nm was recorded and analyzed in GraphPad Prism6.
# Biacore Screening: Affinity was measured by determining the kinetic rate constants using surface plasmon resonance (SPR) on a Biacore T200 or T100 with the T200 sensitivity upgrade instrument (Biacore, GE Healthcare). […] The raw data were analyzed using Biacore T200 Evaluation Software version 1.0 and fit to a 1:1 binding model, with all parameters set to fit globally except for RI, which was set to fit locally. […]
# [1] = test system: cynomologus (cyno) ENTPD2; experiment: Biacore SPR kinetic affinity to cyno ENTPD2 ECD; type: binding, cynomolgus monkey; conditions: 25° C.; for Cyno ENTPD2 ka: association rate; for Cyno ENTPD2 kd: dissociation rate
# Procedure: as §1
# [2] = molecular target: T3, Human ENTPD1 (NP_001767) expressing NIH/3T3 cells; experiment: Cross reactivity: FACS binding to human ENTPD1 expressing NIH/3T3 cells; conditions: 50 nM antibody
# Procedure: (§2) FACS screening: Specific binding of candidate antibodies to endogenously expressed ENTPD2 was assessed by flow cytometry. Cells were rinsed thoroughly with 1× PBS and treated with Accutase (Millipore #SCR005) to lift from growth plates and resuspended at approximately 1×10^5 cells/90 μL in 1× FACS buffer (2% FBS +0.1% NaN3 in PBS). In a 96-well U-bottom plate, 10 μL of 10× antibody solution in FACS buffer was pre-seeded and 90 μL of cell suspension was added. Cell were incubated for 30 minutes at 4° C., washed 1× with cold PBS and resuspended in 100 μL of 1:500 secondary antibody 1× FACS buffer (Allophycocyanin conjugated F(ab′)2 goat anti-human IgG, Fcγ specific; Jackson Immunoresearch, Cat# 109-136-098). After additional incubation for 15 min at 4° C., cells were washed twice with PBS and resuspended in 100 μL of 1× FACS buffer with 4 μg/mL propidium iodide (Life Technologies, Cat# P3566). Geometric mean fluorescence intensity was calculated on live single cells using FlowJo software.
# (§3) Cross reactivity Human ENTPD1 (NP_001767) expressing NIH/3T3 cells were generated using a retroviral transduction approach. 72hrs post transduction, engineered cells were stained with the anti-Human CD39/ENTPD1 APC-conjugated Antibody (R&D systems, Minneapolis, Minn.) and live cells that expressed human ENTPD1 were separated from the rest of the population via fluorescence activated cell sorting. […]
# NIH/3T3 cells = experiment: Cross reactivity: FACS binding to parental NIH/3T3 control cells; conditions: 50 nM antibody
# Procedure: as §2, §3
# H520 cells = experiment: Cross reactivity: FACS binding to H520 cells (ENTPD3 and ENTPD8 expression); design: species or system human; conditions: 50 nM antibody
# Procedure: as §2
# H520 cells were identified as a cancer cell line with ENTPD3 (Ct 25) and ENTPD8 (Ct 26) expression by Taqman and were used for selectivity screening.
Molecule,Human ENTPD2 ka (human ENTPD2) [M⁻¹ s⁻¹],Human ENTPD2 kd (human ENTPD2) [s⁻¹],Mouse ENTPD2 BIACore KD (nM) (mouse ENTPD2),Cyno ENTPD2 ka [1] [M⁻¹ s⁻¹],Cyno ENTPD2 kd [1] [s⁻¹],"Apparent FACS binding at 50 nM, NIH/3T3 - ENTPD1 [2]","Apparent FACS binding at 50 nM, NIH/3T3 cells (NIH/3T3 cells)","Apparent FACS binding at 50 nM, H520 Cells (H520 cells)"
B1,300000,0.00022,No binding,140000,0.0057,–,–,–
B2,270000,0.00016,No binding,290000,0.003,–,–,–
B3,–,–,–,–,–,No binding,No binding,No binding
B4,–,–,–,–,–,No binding,No binding,No binding

# Where a chain is given by its changes, count along the chain named.
